# Results published in PubChem BioAssay AID488969 (Vanderbilt High Throughput Screening Facility, 2010).
# In all, about 110,000 compounds were measured (“z-score”: median about -0.1, highest 2% from about 2 on). The list shows a part of the results.
# Target: Metabotropic glutamate receptor 8 (Rattus norvegicus) (UniProt P70579)
# Test: rat mGluR8 modulators via GIRK flux, primary screen, cell-based, thallium flux, HTS (AID 488969)
# Conditions: HEK293 rat mGluR8, GIRK (G protein-gated inwardly rectifying potassium channel) thallium flux, FluoZin2; at 10 µM; stronger effect = higher value; submaximal glutamate (EC20) added with thallium
# Sequence of UniProt P70579 (P70579 whole entry, looked up): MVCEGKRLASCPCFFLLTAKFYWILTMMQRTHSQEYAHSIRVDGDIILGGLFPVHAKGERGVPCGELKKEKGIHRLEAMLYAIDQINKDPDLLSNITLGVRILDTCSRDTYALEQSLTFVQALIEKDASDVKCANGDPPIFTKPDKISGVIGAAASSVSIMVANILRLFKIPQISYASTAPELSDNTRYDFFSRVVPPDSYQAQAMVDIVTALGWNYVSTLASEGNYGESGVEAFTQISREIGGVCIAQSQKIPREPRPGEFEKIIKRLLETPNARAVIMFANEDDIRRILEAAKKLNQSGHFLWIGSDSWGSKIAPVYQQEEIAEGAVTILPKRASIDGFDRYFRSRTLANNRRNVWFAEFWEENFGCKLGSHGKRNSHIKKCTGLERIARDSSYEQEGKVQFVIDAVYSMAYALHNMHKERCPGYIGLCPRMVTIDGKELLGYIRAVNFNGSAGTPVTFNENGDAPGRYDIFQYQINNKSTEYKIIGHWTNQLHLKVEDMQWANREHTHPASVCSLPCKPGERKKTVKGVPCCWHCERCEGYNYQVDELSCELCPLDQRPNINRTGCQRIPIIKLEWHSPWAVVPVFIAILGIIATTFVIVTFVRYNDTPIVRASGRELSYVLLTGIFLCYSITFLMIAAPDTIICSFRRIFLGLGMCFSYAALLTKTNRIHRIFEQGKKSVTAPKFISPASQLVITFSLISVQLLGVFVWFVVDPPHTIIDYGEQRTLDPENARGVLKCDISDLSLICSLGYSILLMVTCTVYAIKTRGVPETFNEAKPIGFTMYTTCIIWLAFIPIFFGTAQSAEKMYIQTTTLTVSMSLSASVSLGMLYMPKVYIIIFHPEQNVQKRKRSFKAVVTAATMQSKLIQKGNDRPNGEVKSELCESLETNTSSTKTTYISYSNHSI
row,SMILES,z-score
1,NC(=O)CC(NC(=S)NCc1ccccc1)C(=O)O (stereo unspecified),0.23
2,FC(F)Sc1nc(-c2ccccc2)c(-c2ccccc2)n1C(F)F,1.41
3,C=CCN1C(=Nc2cccnc2)SCC1(O)c1ccc(C)cc1 (stereo unspecified),2.38
4,CCOc1ccc(-n2ccnc2SCC(=O)Nc2nnc(C)s2)cc1,0.15
5,CCOC(=O)c1cccnc1SCC(=O)N(C)c1ccccc1,0.069
6,CCOC(=O)C1=C(O)C(=O)N(c2ccc(S(N)(=O)=O)cc2)C1c1ccc(Cl)cc1 (stereo unspecified),-0.45
7,CN(C)C(=O)CSc1nc2ccccc2c(=O)[nH]1,0.00591
8,COc1ccccc1N1CCN(C(=O)CSc2nnc(NC(=O)C3CC3)s2)CC1,0.008
9,Cc1ccc(CNC(=O)C2CCCN(S(=O)(=O)c3cnc[nH]3)C2)cc1 (stereo unspecified),-0.0923
10,CN(C)/C=C/C(=O)c1ccc(Cl)cc1,0.00641
11,CCn1c(SC(C)C(=O)NC2CCCc3ccccc32)nnc1-c1cccs1 (stereo unspecified),0.594
12,Cc1cc(OC(=O)c2ccccc2Cl)cc(=O)n1C,-0.733
13,O=C(NC(=S)NCCN1CCOCC1)c1ccc(F)cc1,-0.084
14,COc1ccc(N(C(=O)c2ccco2)C(C(=O)NC2CCCC2)c2cccs2)cc1OC (stereo unspecified),-0.111
15,Cc1ccc([N+](=O)[O-])cc1NC(=O)CN(C1CCCCC1)S(=O)(=O)c1ccc(Cl)cc1,-0.272
16,Cc1ccc(CNC(=O)C2CCN(S(=O)(=O)c3c(C)noc3/C=C/c3ccco3)CC2)cc1,-0.501
17,CC(=O)c1c(C)n(C)c2ccc(O)cc12,0.14
18,CC1CCCN(c2nc3c(c(=O)n(C)c(=O)n3C)n2CCSc2nc3ccccc3s2)C1 (stereo unspecified),-0.497
19,Cc1ccc(C)c(NC(=S)NCc2cccs2)c1,0.0229
20,COC(=O)c1nn(-c2ccccc2)c(Cl)c1/C=N/OCc1ccc(Cl)cc1Cl,-0.0495
21,O=C(CN(Cc1cccs1)C(=O)CSc1nnc(COc2ccccc2)o1)NC1CCCCC1,-0.028
22,COC(=O)c1nnn(CC(=O)Nc2cccc(OC)c2)c1C(=O)OC,-0.378
23,Cc1ccc(C2/C(=C(/O)c3cnn(-c4ccccc4)c3C)C(=O)C(=O)N2CCN2CCOCC2)o1 (stereo unspecified),-0.0577
24,CCCCNC(=O)/C(=C/c1ccccc1)NC(C)=O,-0.217

row,SMILES,z-score
1,C=CCNC(=O)N[C@@H](CCSC)C(=O)OC,-0.211
2,CCCCC(c1nnnn1CCOC)N1CCN(C)CC1 (stereo unspecified),0.232
3,CCc1ccc(NS(=O)(=O)c2ccc3[nH]cc(C(=O)N(C)Cc4ccco4)c(=O)c3c2)cc1,-0.15
4,COc1cccc(CNC(=O)CCn2c(=O)oc3ccccc32)c1,-0.177
5,COc1cc(OC)cc(C(=O)N2CCC(N3CCCCCC3)CC2)c1,1.27
6,Cc1cc(/C=N/n2cnnc2)c(C)n1-c1ccc(Cl)cc1Cl,-0.06
7,O=S(=O)(Nc1nc2ccccc2nc1N1CCN(c2ccccn2)CC1)c1ccc(Cl)cc1,-1.76
8,Cc1ccc(C(NC(=O)N2CCOCC2)C(Cl)Cl)cc1F (stereo unspecified),-0.2
9,CCC(=O)N1CCc2cc(Br)cc(S(=O)(=O)CCC(=O)NCCc3ccccc3)c21,-1.43
10,CCc1ccc(-c2nc(CN3CCC(C(=O)NCc4ccccc4OC)CC3)c(C)o2)cc1,0.683
11,N#CCC(=N)N1CCN(c2ccccc2Cl)CC1,0.229
12,CCCCCOc1ccc(Cl)cc1CN1CCOCC1,-0.125
13,CCOC(=O)N1CCN(C(=O)CCn2nc(-c3ccccc3)ccc2=O)CC1,-1.44
14,c1ccc(NC2=NCCCCS2)cc1,0.19
15,NC(=O)c1cc2cc(Cl)ccc2oc1=O,-0.214
16,COc1ccc(-n2nc(C(=O)NCC(=O)NCc3ccco3)c3ccccc3c2=O)cc1Cl,-0.689
17,O=C(c1c[nH]c2ccccc12)C(O)C(c1ccccc1)N1CCOCC1 (stereo unspecified),-0.674
18,Cc1ccc(-n2c(SCC(=O)NCc3ccc4c(c3)OCO4)nnc2-c2cccnc2)c(C)c1,-0.0809
19,C=CCSc1nnc(NC(=O)CSc2nnc(C)s2)s1,-0.117
20,CC(C)(C)NC(=O)c1ccc2c(c1)C1C3CCC(C3)C1C(c1ccccc1)N2 (stereo unspecified),1.96
21,CCc1ccc(C(C)NC(=O)C2(C)CC2(Br)Br)cc1 (stereo unspecified),0.309
22,COc1ccc(NC(=O)N2CCCC(c3nc(-c4ccc(C(C)C)cc4)no3)C2)cc1 (stereo unspecified),0.9
23,COC(=O)c1ccc(CSc2ccc3nnc(-c4ccccn4)n3n2)o1,-0.907
24,CC(=O)NNc1ncnc2ccccc12,0.156

row,SMILES,z-score
1,Cc1cc(SCC(=O)Nc2ccccc2)nc(C)n1,0.42
2,COc1ccc(/C(O)=C2\C(=O)C(=O)N(CCN(C)C)C2c2cccc(OC)c2OC)cc1Cl (stereo unspecified),-0.0486
3,CCOc1ncccc1C(=O)OCc1ccc(C(=O)OC)o1,0.118
4,CCOc1ccc(NC(=O)CN2C(=O)COc3ccc(Cl)cc32)cc1,-0.332
5,C=CCn1c(SCC(=O)Nc2c(C)nn(Cc3ccccc3)c2C)nnc1C(O)c1ccccc1 (stereo unspecified),-0.057
6,Fc1ccccc1NC(=S)NCCc1ccccc1,0.134
7,COc1ccc(CN2CC(C(=O)NCc3ccccn3)CC2=O)cc1 (stereo unspecified),-0.181
8,Cc1ccc(C(=O)NCCCNCCCN(C)C)cn1,-0.136
9,Fc1ccc(NC(=S)NC23CN4CN(CN(C4)C2)C3)cc1,-0.123
10,O=C(Nc1ccc(F)cc1)N1CCN(C/C=C/c2ccccc2)CC1,-1.74
11,O=c1c2c3c(sc2n2c(=S)[nH]nc2n1Cc1ccccc1)CN(Cc1ccccc1)CC3,0.914
12,CCOc1ccc(C2C=C(c3ccc(C)cc3)Nc3nnnn32)cc1 (stereo unspecified),-0.306
13,Cc1ccc2nc(-c3ccc(NC(=O)CN4CCN(C(=O)c5ccco5)CC4)cc3)sc2c1,-0.0309
14,Cc1cc(C)cc(NC(=O)c2nccnc2C(=O)O)c1,-0.153
15,O=C(c1cn(-c2ccccc2)nc1-c1cccs1)N1CCOCC1,-0.0174
16,O=C1CC(c2ccccc2)CC(O)=C1C=Nc1cccc(Cl)c1 (stereo unspecified),0.0963
17,CCOc1ccccc1C(=O)N1c2ccccc2Sc2ccccc21,-2.52
18,COc1ccc(-c2n[nH]c(C)c2-c2ccc(Cl)cc2)c(O)c1,-0.148
19,CCc1c(C)nc(SCCOc2ccc(OC(C)C)cc2)[nH]c1=O,0.325
20,O=C1CNCc2[nH]c3ccccc3c2N1c1ccccc1,-0.0518
21,CCOc1cc(C(=O)NCCN2C(=O)S/C(=C\c3cccnc3)C2=O)cc(OCC)c1OCC,-0.324
22,C/C(CC(=O)Nc1ccc(C)c(Cl)c1)=N\NC(=O)Cc1ccccc1,-0.205
23,CC(C)(C)NC(=O)C(c1ccccc1)N(C(=O)c1csnn1)C1CC1 (stereo unspecified),0.369
